PubChem BioAssay (NCI)
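Compound exposure: 48 hours, 5 concentrations, 96-well plates. GI50: concentration for 50% inhibition of growth.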 A number of entries come with more than one value. The other results are left out here. The source may hold further records. For some assays here: The tests behind the records often covered other concentration ranges, not given here; some values may only mark the edge of a range.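 The concentration for full growth arrest is given as TGI.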 For some assays here: The records of an entry are repeated measurements (runs, samples, wells, individuals or studies). Records carry a tag for their origin. Letters hold for one entry only.

Columns and labels:
Assay in all cases: inhibition of tumour cell growth, NCI panel, 48 h
[1] = tested on: K-562 leukemia
[2] = tested on: SN12C renal
[3] = tested on: NCI-H460 lung
[4] = tested on: U251 CNS
[5] = tested on: OVCAR-8 ovarian
[6] = tested on: CCRF-CEM leukemia
[7] = tested on: KM12 colon
[8] = tested on: T-47D breast
[9] = tested on: M14 melanoma
[10] = tested on: MOLT-4 leukemia
[11] = tested on: SNB-19 CNS
[12] = tested on: SK-MEL-2 melanoma
[13] = tested on: UACC-62 melanoma
[14] = tested on: OVCAR-4 ovarian
[15] = tested on: LOX IMVI melanoma
[16] = tested on: RPMI-8226 leukemia
[17] = tested on: NCI-H226 lung
[18] = tested on: HL-60(TB) leukemia
[19] = tested on: UACC-257 melanoma
[20] = tested on: NCI-H522 lung
[21] = tested on: OVCAR-5 ovarian
[22] = tested on: SF-268 CNS
[23] = tested on: HCT-116 colon
[24] = tested on: IGROV1 ovarian
[25] = tested on: SF-539 CNS
[26] = tested on: CAKI-1 renal
[27] = tested on: EKVX NSCLC
[28] = tested on: HT29 colon
[29] = tested on: HOP-62 NSCLC
[30] = tested on: SK-OV-3 ovarian
[31] = tested on: BT-549 breast
[32] = tested on: MCF7 breast
[33] = tested on: SK-MEL-28 melanoma
[34] = tested on: NCI-H23 lung

COc1cc(C2c3cc4c(cc3[C@@H](Nc3ccc(C#N)cc3)C3COC(=O)[C@H]23)OCO4)cc(OC)c1O (some centres undefined)
TGI [1]: 12.6 µM, 6.36 µM, > 100 µM | TGI [2]: 3.72 µM, 75 µM, > 100 µM | TGI [3]: 2.04 µM, 1.68 µM, > 100 µM | TGI [4]: 13.5 µM, 75 µM, 6.12 µM | TGI [5]: 5.62 µM, 75 µM, 4.13 µM | TGI [6]: 50 µM and 1.28 µM | TGI [7]: 50 µM, 2.67 µM, 4.37 µM | TGI [8]: 5.26 µM and > 100 µM | TGI [9]: 9.51 µM and > 100 µM | TGI [10]: 50 µM and 278 nM | TGI [11]: 24 µM, 7.03 µM, > 100 µM | TGI [12]: 48.1 µM, 3.64 µM, 21.4 µM

C=C1C(O)C2(O)OCC34C(CC5C(C)=CC(=O)C(O)C5(C)C23)OC(=O)C(OC(=O)C/C=C(\C)CCCCC)C14 (centres undefined)
TGI [13]: 1.24 nM and 20.8 nM | TGI [14]: 1.23 nM and 59.2 nM | GI50 [15]: < 1 nM [1 test] and 24 nM [mean of 3 tests] | TGI [15]: < 1 nM [1 test] and 269 nM [mean of 3 tests] | TGI [16]: < 1 nM and 19.1 nM | TGI [17]: < 1 nM, 10.8 nM, 20.6 nM | TGI [1]: < 1 nM and 192 nM | TGI [18]: < 1 nM and 86.2 nM | TGI [19]: 6.07 nM, 11.5 nM, 62.9 nM | TGI [2]: 11.8 nM, 91.5 nM, 155 nM | TGI [20]: < 1 nM and 16.9 nM | TGI [3]: < 1 nM and 15 nM | TGI [21]: 11.4 nM, 19 nM, 370 nM | TGI [22]: 1.4 nM, 42 nM, 56.1 nM | TGI [23]: < 1 nM and 53.4 nM | TGI [4]: < 1 nM and 18.7 nM | TGI [24]: < 1 nM and 19.4 nM | TGI [25]: < 1 nM and 22.8 nM | TGI [26]: 254 nM, 3.74 µM, 160 nM | TGI [6]: < 1 nM and 112 nM | TGI [27]: 92.8 nM, 342 nM, 21.1 nM | TGI [28]: < 1 nM and 269 nM | TGI [10]: 6.23 nM and 619 nM | TGI [29]: 1.67 nM and 20.9 nM | TGI [11]: < 1 nM and 19.6 nM | GI50 [30]: < 1 nM and 37.1 nM | TGI [30]: 30.3 nM, > 100 µM, 31 nM | TGI [31]: 1.77 nM and 21.9 nM | TGI [32]: < 1 nM and 16.3 nM | TGI [33]: 1.33 nM and 19.9 nM | TGI [34]: 1.88 nM and 147 nM

CC(C)NC[C@@H](C(=O)N1CCN(c2ncnc3c2[C@H](C)C[C@H]3O)CC1)c1ccc(Cl)cc1
TGI [8]: 1.09 µM [sample A, 1 test] and > 100 µM [sample B, mean of 2 tests]
